This is an account of results in publication PMC12820563, “FoxP3 forms a head-to-head dimer in vivo and stabilizes its multimerization on adjacent microsatellites”.

Some of the results follow.

For this assay, the target named is T1, MBP-FoxP1dN (Mus musculus, UniProt P58462 326-579).
T1 sequence: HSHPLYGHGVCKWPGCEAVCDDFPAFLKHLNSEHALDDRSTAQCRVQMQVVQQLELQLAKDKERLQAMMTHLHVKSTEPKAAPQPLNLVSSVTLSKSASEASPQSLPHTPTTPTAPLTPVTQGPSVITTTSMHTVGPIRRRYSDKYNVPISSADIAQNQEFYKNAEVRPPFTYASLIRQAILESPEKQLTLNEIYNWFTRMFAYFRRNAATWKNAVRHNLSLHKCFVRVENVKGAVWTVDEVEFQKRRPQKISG
Kind of assay: PD-seq (MBP pull-down with sequencing); 20 mM Tris-HCl pH 7.5, 100 mM NaCl, 1.5 mM MgCl2, 0.4 uM protein, 0.1 uM dsDNA library, 30 min, room temperature, amylose pull-down; high values mean tight binding. As to conditions: protein: recombinant; tags: His6-MBP; chain copies: 2; dsDNA, one strand shown. In outline: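 Binding is reads-per-million enrichment of pull-down over input, with replicates pooled. It comes from 30 min room-temperature incubation in Tris pH 7.5 buffer with NaCl and MgCl2 of 0.4 µM His6-MBP-tagged, N-terminally truncated mouse FoxP3 or FoxP1 fragment from E. coli with 0.1 µM Klenow-filled degenerate double-stranded DNA library, followed by amylose resin capture, three washes and Illumina sequencing of the released DNA.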
For “GATGATTGTTCTCCCAGCTGATGAATTTCGCGTATCGAGTAAACAAATTTTCCTAATCTTTCTGTTCAAGCGCCATCTAC”, the binding signal was 0.994 RPM ratio (pull-down/input).
The value for “GATGATTGTTCTCCCAGCTGATGAATTGTAACGATCGAGTAAACAAATTTTCCTAATCTTTCTGTTCAAGCGCCATCTAC” was 1.03 RPM ratio (pull-down/input).
The value for “GATGATTGTTCTCCCAGCTGATGAATTAGCGTGATCGAGTAAACAAATTTTCCTAATCTTTCTGTTCAAGCGCCATCTAC” was 0.955 RPM ratio (pull-down/input); that for “GATGATTGTTCTCCCAGCTGATGAATTGACATGGTCGAGTAAACAAATTTTCCTAATCTTTCTGTTCAAGCGCCATCTAC” was 1.07 RPM ratio (pull-down/input); that for “GATGATTGTTCTCCCAGCTGATGAATTACTTTTATCGAGTAAACAAATTTTCCTAATCTTTCTGTTCAAGCGCCATCTAC” was 1.14 RPM ratio (pull-down/input).
In the case of “GATGATTGTTCTCCCAGCTGATGAATTCGTGCCCTCGAGTAAACAAATTTTCCTAATCTTTCTGTTCAAGCGCCATCTAC”, the binding signal was 0.801 RPM ratio (pull-down/input).
The value for “GATGATTGTTCTCCCAGCTGATGAATTCAATTCCTCGAGTAAACAAATTTTCCTAATCTTTCTGTTCAAGCGCCATCTAC” was 0.811 RPM ratio (pull-down/input); that for “GATGATTGTTCTCCCAGCTGATGAATTAGTCAAATCGAGTAAACAAATTTTCCTAATCTTTCTGTTCAAGCGCCATCTAC” was 0.986 RPM ratio (pull-down/input).
To “GATGATTGTTCTCCCAGCTGATGAATTCGACCGTTCGAGTAAACAAATTTTCCTAATCTTTCTGTTCAAGCGCCATCTAC” belongs 0.813 RPM ratio (pull-down/input).
“GATGATTGTTCTCCCAGCTGATGAATTGACAGGTTCGAGTAAACAAATTTTCCTAATCTTTCTGTTCAAGCGCCATCTAC”: the binding signal is 1.15 RPM ratio (pull-down/input).
Regarding “GATGATTGTTCTCCCAGCTGATGAATTCCAGAGATCGAGTAAACAAATTTTCCTAATCTTTCTGTTCAAGCGCCATCTAC”, the binding signal is 0.86 RPM ratio (pull-down/input).
Take “GATGATTGTTCTCCCAGCTGATGAATTTCTTTTATCGAGTAAACAAATTTTCCTAATCTTTCTGTTCAAGCGCCATCTAC”: the binding signal is 1.03 RPM ratio (pull-down/input).
The value for “GATGATTGTTCTCCCAGCTGATGAATTGGCAAATTCGAGTAAACAAATTTTCCTAATCTTTCTGTTCAAGCGCCATCTAC” was 1.01 RPM ratio (pull-down/input); that for “GATGATTGTTCTCCCAGCTGATGAATTCATGTAGTCGAGTAAACAAATTTTCCTAATCTTTCTGTTCAAGCGCCATCTAC” was 1.11 RPM ratio (pull-down/input); that for “GATGATTGTTCTCCCAGCTGATGAATTGAACCGATCGAGTAAACAAATTTTCCTAATCTTTCTGTTCAAGCGCCATCTAC” was 0.832 RPM ratio (pull-down/input).
The value for “GATGATTGTTCTCCCAGCTGATGAATTGGACAGGTCGAGTAAACAAATTTTCCTAATCTTTCTGTTCAAGCGCCATCTAC” was 0.761 RPM ratio (pull-down/input); that for “GATGATTGTTCTCCCAGCTGATGAATTTTTTTCGTCGAGTAAACAAATTTTCCTAATCTTTCTGTTCAAGCGCCATCTAC” was 0.988 RPM ratio (pull-down/input); that for “GATGATTGTTCTCCCAGCTGATGAATTAAGTCACTCGAGTAAACAAATTTTCCTAATCTTTCTGTTCAAGCGCCATCTAC” was 1.06 RPM ratio (pull-down/input).
For the sequence “GATGATTGTTCTCCCAGCTGATGAATTCAGGGGCTCGAGTAAACAAATTTTCCTAATCTTTCTGTTCAAGCGCCATCTAC”, the binding signal was 0.769 RPM ratio (pull-down/input).
The value for “GATGATTGTTCTCCCAGCTGATGAATTTGAGATGTCGAGTAAACAAATTTTCCTAATCTTTCTGTTCAAGCGCCATCTAC” was 0.935 RPM ratio (pull-down/input).
To “GATGATTGTTCTCCCAGCTGATGAATTCAACATATCGAGTAAACAAATTTTCCTAATCTTTCTGTTCAAGCGCCATCTAC” belongs 1.08 RPM ratio (pull-down/input); to “GATGATTGTTCTCCCAGCTGATGAATTTGAGATCTCGAGTAAACAAATTTTCCTAATCTTTCTGTTCAAGCGCCATCTAC”, 0.779 RPM ratio (pull-down/input); to “GATGATTGTTCTCCCAGCTGATGAATTTCTGCGATCGAGTAAACAAATTTTCCTAATCTTTCTGTTCAAGCGCCATCTAC”, 0.931 RPM ratio (pull-down/input).
Consider “GATGATTGTTCTCCCAGCTGATGAATTCGATTTATCGAGTAAACAAATTTTCCTAATCTTTCTGTTCAAGCGCCATCTAC”, for which the binding signal is 1.11 RPM ratio (pull-down/input).
To “GATGATTGTTCTCCCAGCTGATGAATTCTGATGATCGAGTAAACAAATTTTCCTAATCTTTCTGTTCAAGCGCCATCTAC” belongs 0.991 RPM ratio (pull-down/input).
To “GATGATTGTTCTCCCAGCTGATGAATTATCGCCTTCGAGTAAACAAATTTTCCTAATCTTTCTGTTCAAGCGCCATCTAC” belongs 1.02 RPM ratio (pull-down/input); to “GATGATTGTTCTCCCAGCTGATGAATTTGGCCAGTCGAGTAAACAAATTTTCCTAATCTTTCTGTTCAAGCGCCATCTAC”, 0.785 RPM ratio (pull-down/input); to “GATGATTGTTCTCCCAGCTGATGAATTCCCGGCATCGAGTAAACAAATTTTCCTAATCTTTCTGTTCAAGCGCCATCTAC”, 0.935 RPM ratio (pull-down/input).
To “GATGATTGTTCTCCCAGCTGATGAATTTGGTCTCTCGAGTAAACAAATTTTCCTAATCTTTCTGTTCAAGCGCCATCTAC” belongs 0.959 RPM ratio (pull-down/input); to “GATGATTGTTCTCCCAGCTGATGAATTGAATATGTCGAGTAAACAAATTTTCCTAATCTTTCTGTTCAAGCGCCATCTAC”, 0.954 RPM ratio (pull-down/input).
“GATGATTGTTCTCCCAGCTGATGAATTGAGACGCTCGAGTAAACAAATTTTCCTAATCTTTCTGTTCAAGCGCCATCTAC”: the binding signal was 0.858 RPM ratio (pull-down/input).
“GATGATTGTTCTCCCAGCTGATGAATTAATATAGTCGAGTAAACAAATTTTCCTAATCTTTCTGTTCAAGCGCCATCTAC”: the binding signal was 0.98 RPM ratio (pull-down/input).
